Reference: the supplement of paper PMC7125110
± gives the standard error. This sample is rich in variants without activity.

B1: glmS ribozyme (parent)
chain: AUAAAAGCGCCAGAACUACAGAAAUGUAGUUGACGAGGAGGAGGUUUAUCGAAUUUUCGGCGGAUGCCUCCAAA

How the values were obtained:
Conditions in all cases: with glucosamine-6-phosphate
[1] = variants of: B1; experiment: self-cleavage kobs at 40 uM GlcN6P; higher = faster cleavage; RNA array
Outline: (§1)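 kobs was derived by fitting per-tile medians to one- or two-exponential decays after normalising signals to baseline and to non-cleaving reference variants. Those signals came from barcoded ribozyme variants transcribed in situ by E. coli RNA polymerase on sequenced MiSeq chips, followed through a hybridised Cy3 probe at 37 °C and imaged over ~14 h. Glucosamine-6-phosphate (40 μM to 10 mM) in HEPES/KCl/Mg(OAc)2 buffer was flowed in. Weighted Michaelis–Menten fits across concentrations then gave kcat and KM.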

[2] = variants of: B1; experiment: self-cleavage kobs at 640 uM GlcN6P; higher = faster cleavage; RNA array
Outline: as §1

[3] = variants of: B1; experiment: self-cleavage kobs at 160 uM GlcN6P; higher = faster cleavage; RNA array
Outline: as §1

[4] = variants of: B1; experiment: self-cleavage kobs at 2500 uM GlcN6P; higher = faster cleavage; RNA array
Outline: as §1

[5] = variants of: B1; experiment: self-cleavage kobs at 10000 uM GlcN6P; higher = faster cleavage; RNA array
Outline: as §1

Variant	self-cleavage kobs at 40 uM GlcN6P [1] [s⁻¹]	self-cleavage kobs at 640 uM GlcN6P [2] [s⁻¹]	self-cleavage kobs at 160 uM GlcN6P [3] [s⁻¹]	self-cleavage kobs at 2500 uM GlcN6P [4] [s⁻¹]	self-cleavage kobs at 10000 uM GlcN6P [5] [s⁻¹]
G29C U54C	6.42e-05 ± 1.4e-05	0.000301 ± 7.9e-05	0.000153 ± 2.5e-05	0.000773 ± 0.00014	0.0019 ± 0.00032
G29U A33C C70U	< 1e-05	< 1e-05	< 1e-05	< 1e-05	–
G29U A33U G38C G40A	< 1e-05	–	–	–	–
G29U A39C U57C	< 1e-05	–	–	–	–
G29U C34U A42C	< 1e-05	< 1e-05	< 1e-05	< 1e-05	< 1e-05
G29U C67A	5.58e-05 ± 7.8e-06	0.000276 ± 3.9e-05	9.85e-05 ± 1.4e-05	–	–
G29U G43C	< 1e-05	< 1e-05	–	–	< 1e-05
G29U G44A	< 1e-05	–	–	–	–
G29U G62A	< 1e-05	–	< 1e-05	–	< 1e-05
G29U U30C	< 1e-05	< 1e-05	–	< 1e-05	–
G29U U47A G63U C71G	< 1e-05	–	–	–	–
G29U U49C	< 1e-05	–	–	< 1e-05	< 1e-05
U30A A33C	< 1e-05	–	–	–	–
U30A A64G	0.000149 ± 2.6e-05	0.00193 ± 0.00045	0.000656 ± 0.00022	0.0035 ± 0.0008	0.00607 ± 0.0014
U30A C34A	< 1e-05	< 1e-05	< 1e-05	< 1e-05	< 1e-05
U30A C34A G35U U57A	< 1e-05	–	–	–	–
U30A C58A G60C U69G	< 1e-05	–	–	–	–
U30A C58G U65C	< 1e-05	–	–	–	–
U30A G43U C67U	< 1e-05	–	–	–	–
U30A G44A	< 1e-05	–	–	–	–
U30A G44C U56A G62U	< 1e-05	–	–	–	–
U30A G66C C70G	< 1e-05	–	–	–	–
U30A U31A	0.000419 ± 7.6e-05	0.00269 ± 0.00057	0.00152 ± 0.00033	–	–
U30C A48U	< 1e-05	< 1e-05	< 1e-05	–	< 1e-05
U30C C34U U65C	< 1e-05	–	–	–	< 1e-05
U30C G35A C50G C61U A64G	0.000165 ± 5.1e-05	–	–	–	–
